In all, about 33,000 sequences were measured (“E-score (-0.5 to 0.5)”: median about -0.012, highest 2% from about 0.29 on). The list shows a part of the results.
What follows are sequences tested against T1, Ybr033w (UniProt P38073) (assay: PBM E-score (8-mer binding enrichment) (E-score (-0.5 to 0.5)); higher = stronger / more preferred TF binding; most listed sequences are background and not binding sites). Settings: protein concentration: 200 nM; construct: GST-full length.
T1 sequence: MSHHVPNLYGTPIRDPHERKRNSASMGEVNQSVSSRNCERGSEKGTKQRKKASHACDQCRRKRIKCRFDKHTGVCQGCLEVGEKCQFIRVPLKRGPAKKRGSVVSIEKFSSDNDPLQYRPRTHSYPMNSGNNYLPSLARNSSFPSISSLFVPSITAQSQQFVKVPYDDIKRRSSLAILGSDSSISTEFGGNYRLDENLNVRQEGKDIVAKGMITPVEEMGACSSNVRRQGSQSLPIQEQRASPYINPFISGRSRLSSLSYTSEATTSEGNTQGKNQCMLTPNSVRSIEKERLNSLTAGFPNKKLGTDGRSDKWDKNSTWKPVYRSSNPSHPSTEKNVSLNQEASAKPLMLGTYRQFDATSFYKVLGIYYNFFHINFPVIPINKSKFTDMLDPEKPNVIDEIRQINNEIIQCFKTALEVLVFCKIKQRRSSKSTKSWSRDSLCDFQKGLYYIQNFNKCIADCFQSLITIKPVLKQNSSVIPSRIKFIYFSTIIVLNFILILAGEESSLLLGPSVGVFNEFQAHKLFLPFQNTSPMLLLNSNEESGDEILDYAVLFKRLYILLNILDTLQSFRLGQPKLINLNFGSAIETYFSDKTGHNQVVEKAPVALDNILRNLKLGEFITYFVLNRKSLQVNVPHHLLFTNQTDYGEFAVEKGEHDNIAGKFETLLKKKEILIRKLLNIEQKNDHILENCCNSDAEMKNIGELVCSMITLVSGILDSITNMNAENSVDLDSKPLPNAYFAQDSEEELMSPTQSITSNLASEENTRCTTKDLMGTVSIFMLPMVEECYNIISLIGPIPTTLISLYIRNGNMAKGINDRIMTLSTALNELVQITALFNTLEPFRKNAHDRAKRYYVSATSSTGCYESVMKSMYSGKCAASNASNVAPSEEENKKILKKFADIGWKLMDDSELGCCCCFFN
Outline: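 Yeast transcription factors carrying a GST tag, as full-length proteins or DNA-binding domains, were produced by PURExpress in vitro transcription/translation. About 100-200 nM protein was applied to universal all-10-mer Agilent arrays, double-stranded by primer extension on fresh or once-stripped slides. Bound protein was detected with fluorescent anti-GST, and scans were normalised with masliner. The Universal PBM Analysis Suite gave each ungapped eight-base word, pooled with its reverse complement, an E-score, a modified Wilcoxon-Mann-Whitney statistic.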

Row | Sequence | PBM E-score
1 | TGCACAAA | 0.0788
2 | CCCGGATC | 0.0588
3 | CACTGCAC | -0.0225
4 | AGTTCTTG | 0.203
5 | CTTTTTAC | 0.126
6 | AAGATCGT | -0.0522
7 | CGGAATAA | 0.468
8 | ATGGTAAA | 0.187
9 | CACACAGG | -0.125
10 | AAATCGTA | 0.269
11 | GTGTGTGA | 0.0756
12 | GAATGGTA | 0.0656
13 | ATGGCAAC | -0.0208
14 | GTTCTTCA | -0.14
15 | CGCTGTCA | -0.264
16 | ACCAGTTA | 0.0115
17 | CCGTTTAA | 0.169
18 | AGTGTCTC | -0.116
19 | AATCCTCG | 0.102
20 | ACAGACTC | -0.0761
21 | GATGTTGC | 0.0334
22 | CACCCACG | -0.0887
23 | ATATGGCA | 0.0327
24 | GCTGCCAA | -0.13
25 | TTCGACAA | 0.0957

Row | Sequence | PBM E-score
26 | ACTTCCCC | -0.326
27 | ACGTGCAT | -0.12
28 | CTAGCACA | -0.126
29 | CGAGTAAC | 0.124
30 | CCCCAACG | -0.112
31 | GTGTATCA | 0.178
32 | GCTGCGGA | 0.0313
33 | GGACCCTA | -0.235
34 | ACAACAAG | 0.203
35 | CAGCACAC | -0.198
36 | AAGTTAGG | 0.0258
37 | ACTCCATC | 0.21
38 | AGTGTCAG | -0.0511
39 | CTTAGGGA | -0.168
40 | ACTCGTCA | 0.0162
41 | GGAGGGCA | -0.155
42 | CGGTCTAG | -0.0446
43 | CAATTTCA | 0.0349
44 | AAAATACG | 0.171
45 | GACTCTAC | -0.261
46 | ATTAACCG | 0.295
47 | ATGGATGC | -0.111
48 | CAGTACTG | -0.142
49 | TACTGGAA | 0.128
50 | ACTAGGGC | -0.13

Row | Sequence | PBM E-score
51 | AAGGGGGG | -0.473
52 | ATCCAAAG | 0.0799
53 | CGCCGCCG | -0.141
54 | CACAGCGC | -0.106
55 | GTCCTAAC | -0.0118
56 | CAATCGTA | 0.135
57 | AGAGGTCA | -0.127
58 | CACGGGGC | -0.31
59 | CGCCGTGA | -0.0954
60 | CACGCGTC | -0.0213
61 | GGGTAACA | -0.173
62 | ATATAATA | 0.34
63 | CGCCATGC | -0.152
64 | ATCACTTC | 0.111
65 | AGACCCTC | -0.272
66 | CCCTTAAC | -0.27
67 | GGGGGACA | -0.223
68 | CGCCTTAA | 0.0619
69 | CGTGGAAG | 0.0416
70 | GGACCTAA | -0.189
71 | CATTCACG | -0.00561
72 | GGTGTGGA | 0.0582
73 | CAGTAACC | -0.00269
74 | ATTCCCCA | -0.0626
75 | AACTTTGT | 0.181

Row | Sequence | PBM E-score
76 | CTTCTGGC | -0.0573
77 | GGTTATCA | -0.0303
78 | CACGGGCA | -0.201
79 | CCTGGACA | -0.144
80 | GTGGTGAA | 0.0056
81 | TGCAACCA | -0.12
82 | CTGCACCA | -0.21
83 | CCAGGCAA | -0.0276
84 | CCTAGTAC | -0.0217
85 | AGCGAGAC | -0.151
86 | CTTTTGTA | 0.249
87 | ACGACGGG | -0.19
88 | CTCATGCC | -0.203
89 | TGGCTCAA | 0.0193
90 | AATCTGAT | 0.16
91 | CCTCTTAC | -0.144
92 | CGTTCAAA | -0.0435
93 | AGTTCCTG | -0.066
94 | CATTGCGA | 0.0264
95 | GGATTCCC | -0.136
96 | CATTGAGA | 0.186
97 | GGGTTAAC | 0.0754
98 | CCAGGTCA | -0.175
99 | CAGCGTCA | -0.22
100 | AGCAAACA | 0.00569

Row | Sequence | PBM E-score
101 | GCTCTGCC | -0.232
102 | CCCTAGCA | -0.224
103 | GGTTTGCA | -0.00369
104 | AGCTTGGG | -0.251
105 | CTATAGAC | -0.105
106 | GTGTAGAA | 0.0103
107 | CGACGAAG | 0.0307
108 | ACTACCTA | 0.0452
109 | GAAATGAA | 0.237
110 | CAGAATGA | 0.0308
111 | AACCATTG | 0.0228
112 | ATCCTTGC | 0.013
113 | AATTACCC | 0.0843
114 | CCAAAGCA | 0.0707
115 | CCAGAACC | -0.0501
116 | GCCCCGCA | -0.298
117 | CGGCTTTA | 0.0331
118 | ACAGCACA | 0.144
119 | ACCTGTCT | -0.182
120 | AACTAACG | 0.176
121 | ATCTGTAA | -0.00959
122 | ACTTAGCT | -0.0833
123 | CAATTGAG | 0.0534
124 | CTGCTTGC | -0.0147
125 | GCCTAGGA | -0.121

Row | Sequence | PBM E-score
126 | ACACCCCG | -0.281
127 | ATGGGCAG | -0.114
128 | CCAAACGA | -0.0332
129 | CCCGAAGA | -0.0734
130 | GCGAGAAC | -0.0441
131 | TACGGCCA | -0.0955
132 | AGTCGACC | -0.0708
133 | GCATCCGA | -0.118
134 | AACAGTAG | 0.0504
135 | CGCCCCTA | -0.0706
136 | GTAACACA | 0.0946
137 | CGGACTGA | -0.138
138 | CGTACTGA | 0.122
139 | CAAGAGAA | 0.0456
140 | ACGACGTC | -0.204
141 | CGATCGGC | -0.148
142 | GGACTAAA | -0.0918
143 | AATCAGAG | 0.102
144 | AAAGTCGC | 0.105
145 | ATCTATCG | -0.0539
146 | AAGCCCCA | -0.307
147 | ATTTTCTG | 0.0635
148 | ACGGAGCT | -0.171
149 | AGCAAGTC | 0.0884
150 | ATAACTGC | 0.193

Row | Sequence | PBM E-score
151 | ACCGCACA | -0.0964
152 | AAAGGCTA | 0.0506
153 | ACCTATTC | -0.11
154 | GTCATTGA | 0.0912
155 | AAATCGGA | 0.153
156 | GATTCTAA | 0.031
157 | AAGTCCGG | 0.00798
158 | AGTAAGAG | -0.092
159 | TAAACTGA | 0.136
160 | AACATAGG | 0.0261
161 | CACACCGC | -0.0805
162 | GCGTCACA | -0.131
163 | CCTCCAAA | -0.0989
164 | ACGTCGGC | -0.18
165 | ACGCTCGA | -0.0783
166 | GCTGCGCA | -0.0339
167 | AGTTGTAG | 0.205
168 | ACAAGGGA | -0.105
169 | GCTAAGTA | 0.0835
170 | CCTTTGCA | 0.0151
171 | AGCGGCCT | -0.16
172 | AGCTGACA | -0.103
